# Results from the supplement of paper PMC7826260.
# The list shows a part of the results. One pool of 16,384 single-stranded DNAs met each Rep nickase domain in vitro for 1 h at 37 °C with 3 µM enzyme; only the middle of the 90-letter strands is printed. Numbers give uncut DNA relative to the enzyme-free pool, as log2; strong cutting gives strongly negative numbers. There is no active / inactive call. Counts are relative to all reads; where an enzyme cuts many sequences, the uncut ones exceed 0.
# Columns and labels:
# Assay in all cases: uncleaved DNA left, log2 of reads against the no-enzyme library (log2 ratio); higher = less cleavage (more negative = more Rep cleavage of the k-mer); sequences stand for … in CTCGTCCG…ACCGGAGA
# [1] = test system: T1, Rep nickase domain of Muscovy duck circovirus
# T1 sequence (Rep 1-111, printed without the tag): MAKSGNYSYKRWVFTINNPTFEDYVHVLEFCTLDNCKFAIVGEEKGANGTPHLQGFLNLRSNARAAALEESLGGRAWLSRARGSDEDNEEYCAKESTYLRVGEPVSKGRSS
# Method: (§1)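 A pool of 90-nt single-stranded DNAs with seven random bases just before the constant AC of the nick site (name = the seven bases) was cut by 3 µM recombinant His6-SUMO-tagged Rep nickase domain (300 nM DNA, 50 mM HEPES pH 8.0, 50 mM NaCl, 1 mM MnCl2, 1 h, 37 °C, three replicates). Uncut DNA was amplified and sequenced.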
# [2] = test system: T2, Rep nickase domain of banana bunchy top virus
# T2 sequence (Rep 1-94, printed without the tag): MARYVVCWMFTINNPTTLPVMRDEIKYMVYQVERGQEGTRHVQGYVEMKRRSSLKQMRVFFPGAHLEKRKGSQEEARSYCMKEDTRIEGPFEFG
# Method: as §1
# [3] = test system: T3, Rep nickase domain of cabbage leaf curl virus
# T3 sequence (Rep 1-116, printed without the tag): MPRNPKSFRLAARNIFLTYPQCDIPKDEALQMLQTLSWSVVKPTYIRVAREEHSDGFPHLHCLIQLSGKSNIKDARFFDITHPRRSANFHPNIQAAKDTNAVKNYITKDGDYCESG
# Method: as §1
# [4] = test system: T4, Rep nickase domain of chickpea chlorotic dwarf virus
# T4 sequence (Rep 1-124, printed without the tag): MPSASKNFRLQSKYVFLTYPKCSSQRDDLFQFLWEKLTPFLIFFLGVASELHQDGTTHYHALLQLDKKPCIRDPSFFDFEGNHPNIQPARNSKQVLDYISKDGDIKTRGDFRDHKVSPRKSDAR
# Method: as §1
# [5] = test system: T5, Rep nickase domain of faba bean necrotic yellows virus
# T5 sequence (Rep 1-98, printed without the tag): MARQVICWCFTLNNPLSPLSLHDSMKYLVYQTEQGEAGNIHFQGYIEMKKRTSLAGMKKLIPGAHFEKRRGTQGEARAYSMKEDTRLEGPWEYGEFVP
# Method: as §1
# [6] = test system: T6, Rep nickase domain of maize striate mosaic virus
# T6 sequence (Rep 1-117, printed without the tag): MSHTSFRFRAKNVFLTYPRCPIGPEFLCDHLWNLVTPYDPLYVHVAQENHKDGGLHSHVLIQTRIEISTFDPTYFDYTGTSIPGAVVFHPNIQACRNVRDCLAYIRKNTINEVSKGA
# Method: as §1
# [7] = test system: T7, Rep nickase domain of porcine circovirus 2
# T7 sequence (Rep 2-116, printed without the tag): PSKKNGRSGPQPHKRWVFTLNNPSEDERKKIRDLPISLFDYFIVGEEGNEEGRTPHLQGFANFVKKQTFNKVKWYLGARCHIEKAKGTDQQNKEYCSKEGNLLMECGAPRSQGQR
# Method: as §1
# [8] = test system: T8, Rep nickase domain of tomato yellow leaf curl virus
# T8 sequence (Rep 1-136, printed without the tag): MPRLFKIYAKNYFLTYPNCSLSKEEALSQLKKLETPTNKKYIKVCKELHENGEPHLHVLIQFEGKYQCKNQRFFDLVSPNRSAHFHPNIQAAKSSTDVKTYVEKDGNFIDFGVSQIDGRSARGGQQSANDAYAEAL
# Method: as §1
# [9] = test system: T9, Rep nickase domain of wheat dwarf virus
# T9 sequence (Rep 1-137, printed without the tag): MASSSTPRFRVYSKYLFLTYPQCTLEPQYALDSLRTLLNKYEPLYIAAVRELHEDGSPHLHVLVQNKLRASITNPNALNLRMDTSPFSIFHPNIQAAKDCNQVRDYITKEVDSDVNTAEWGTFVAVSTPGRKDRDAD
# Method: as §1
Sequence,uncleaved DNA left (log2) [1],uncleaved DNA left (log2) [2],uncleaved DNA left (log2) [3],uncleaved DNA left (log2) [4],uncleaved DNA left (log2) [5],uncleaved DNA left (log2) [6],uncleaved DNA left (log2) [7],uncleaved DNA left (log2) [8],uncleaved DNA left (log2) [9]
AACGTTG,-0.00382,0.0739,-0.0264,0.419,-0.00134,0.367,0.177,0.0172,0.00884
GGGTTGG,0.0414,0.0704,0.612,1.27,0.000601,1.57,0.217,-0.0128,0.0325
ATCGTTT,-0.181,-0.15,-0.147,-2.17,-0.0928,-0.585,-0.151,-0.124,-0.164
TGCCACA,-0.214,-0.0281,0.0642,-0.718,-0.0278,-0.159,-0.113,-0.0122,-0.0385
GTCAAGT,-0.0152,0.0699,0.336,0.796,0.0507,1.41,0.0999,0.117,0.144
TGAGAAA,0.236,0.313,0.46,0.363,0.218,0.188,0.219,0.156,0.176
GCGAATG,0.0379,0.0422,0.0287,0.649,-0.154,1.65,0.0489,-0.0984,0.0301
GCTTAGG,0.0288,0.138,0.294,1.2,0.111,1.06,0.162,-0.0689,0.146
AGACTGT,-0.0396,-0.0157,-0.00955,0.688,-0.00862,1.59,-0.0341,-0.106,0.022
CGCGGCG,0.0065,-0.0996,-0.763,-0.0776,-0.139,-0.604,0.0787,-0.0788,-0.0981
GCCCAGG,0.124,0.0563,0.251,1.04,-0.0133,0.811,0.0784,0.00223,0.0117
CCTGGTT,0.0099,-0.102,0.11,-0.664,-0.0376,0.447,-0.00525,-0.135,-0.0742
TAAAAGC,-0.0243,-0.0726,-0.396,-1.26,0.0404,-1.24,0.109,0.00931,-0.159
CTTCTTC,-0.0763,-0.0793,-0.129,-0.636,-0.0231,-0.899,0.00186,-0.207,0.0172
TCTGATT,-0.0182,-0.216,-0.0319,-2.08,-0.0348,0.00918,-0.491,-0.205,-0.206
TTACTCT,-0.0638,-0.00311,-0.322,-2.96,-0.0492,-0.541,-0.418,-0.00954,-0.146
AGCTCAG,0.00124,0.00593,-0.336,-0.00254,0.0145,-0.63,0.0158,-0.0233,0.00906
AAGTGGC,-0.00886,-0.0468,-0.426,-0.373,-0.0737,-0.927,-0.094,-0.0838,0.00856
CTAAAGA,-0.0208,0.0219,-0.115,-0.192,-0.0782,-0.95,0.177,0.0433,-0.0768
GAACTTA,-0.083,0.023,0.225,-0.467,-0.179,0.948,-0.029,-0.0065,0.0146

Sequence,uncleaved DNA left (log2) [1],uncleaved DNA left (log2) [2],uncleaved DNA left (log2) [3],uncleaved DNA left (log2) [4],uncleaved DNA left (log2) [5],uncleaved DNA left (log2) [6],uncleaved DNA left (log2) [7],uncleaved DNA left (log2) [8],uncleaved DNA left (log2) [9]
GACATGG,0.163,0.13,0.114,0.489,0.0765,-0.127,0.205,0.0393,0.0984
GTAGTAG,-0.0783,0.00558,-0.0667,0.0466,-0.0545,-0.326,0.0205,0.0148,0.0673
GCGCCTA,-0.0472,-0.00854,0.00238,-0.0225,-0.07,0.415,-0.0291,-0.0955,-0.0466
ATCCCGT,0.141,0.00525,-0.276,-0.795,0.105,-0.753,0.146,0.0986,0.0147
CAGAGAT,0.0829,0.168,0.381,1.58,0.0314,1.9,-0.021,-0.157,-0.023
CACTCAT,-0.186,-0.952,-0.115,-2.52,0.144,-0.703,-3.54,0.0465,0.0331
CATCAAA,-0.000314,0.0963,0.0787,-0.0709,0.0504,-0.622,0.0612,0.0286,0.0757
TGAGAAG,0.157,0.0679,-0.447,-0.342,0.0801,-0.825,0.26,0.0978,0.00991
GTCTCAC,0.07,0.17,0.397,0.873,0.128,1.74,0.214,0.192,0.205
CGTGTCA,-0.0875,0.0553,0.316,0.272,-0.0318,0.901,0.0158,0.082,0.135
GTTTAAA,0.0128,0.116,0.365,0.977,0.128,1.82,0.142,0.142,0.108
TCTTGCG,-0.024,-0.0318,-0.0504,1.11,0.0469,1.18,0.0779,-0.266,-0.13
TTCACTC,-0.00248,-0.00795,0.176,-0.711,0.0256,-0.154,0.061,0.0505,0.0545
CGCATGT,0.0781,0.0715,-0.108,-0.0133,0.107,-0.229,0.0382,0.043,0.0219
TAAAGTG,0.028,-0.0688,-1.25,-2.23,-0.0105,-1.09,0.139,0.0138,-0.124
GATATCT,0.0525,-0.336,0.22,-1.3,0.0929,0.718,-0.593,0.15,0.0936
CTAGGTC,-0.0248,-0.033,0.291,0.723,-0.0134,0.828,-0.18,0.0303,0.00131
GTGATCT,0.0794,0.15,0.4,0.962,0.0715,1.85,0.155,0.0919,0.0948
TGCACAA,0.0826,0.0609,-0.00875,0.241,-0.0758,-0.237,-0.0271,0.0227,0.146
GCCCATT,-0.00281,0.0617,0.0481,-0.0715,-0.239,0.403,-0.316,-0.0987,0.0264

Sequence,uncleaved DNA left (log2) [1],uncleaved DNA left (log2) [2],uncleaved DNA left (log2) [3],uncleaved DNA left (log2) [4],uncleaved DNA left (log2) [5],uncleaved DNA left (log2) [6],uncleaved DNA left (log2) [7],uncleaved DNA left (log2) [8],uncleaved DNA left (log2) [9]
CGTGGGT,0.00175,0.0699,0.157,0.616,-0.0741,0.728,0.146,-0.0591,0.0992
AAAGGCG,0.0817,0.0336,-0.573,0.809,0.089,-0.214,0.185,0.0892,-0.0962
CGGGAGA,0.136,0.1,0.873,1.64,0.0229,1.79,0.212,0.0655,0.168
CATGCAT,-0.13,-0.135,-0.545,-1.06,-0.111,-1.27,-0.0582,-0.129,-0.185
CCACGCA,-0.138,-0.122,-0.404,-0.576,-0.0302,-0.938,-0.0706,-0.129,-0.143
CAAGATC,-0.0348,0.0109,-0.0493,-0.578,0.135,-0.299,0.00708,0.0871,0.0647
AAATCGC,-0.0653,-0.0964,-1.62,-1.43,-0.0483,-1.45,-0.0799,-0.113,-0.336
CCTTCTT,-2.46,-0.443,-0.311,-2.82,-0.0896,-0.848,-2.83,-0.0874,-0.133
TTAGGCT,-0.0356,-0.026,0.117,-0.21,0.00953,0.39,-0.0282,-0.0472,0.00742
TCGCAGC,0.0496,-0.0571,-0.0361,-0.39,0.0499,-1.01,0.0794,0.0334,0.124
TATATCC,0.0686,-0.0237,0.144,-0.192,-0.126,-0.233,0.052,0.0772,0.101
GATTTTC,-0.458,-0.109,0.348,0.528,-0.0603,0.904,-0.413,0.0465,0.167
AGACTCG,0.129,0.0781,-0.211,-0.115,0.0149,-0.548,0.243,0.00241,0.0898
GGCGACC,-0.0362,0.0619,0.2,0.951,-0.00156,0.934,0.0633,0.0591,0.0543
GCTAACA,-0.0875,0.113,-0.201,-0.872,-0.164,0.147,-0.0504,0.102,0.0752
TAAGCAG,-0.0589,-0.134,-0.403,-0.51,-0.0969,-0.816,0.0414,-0.0806,-0.0947
ATCGCAT,0.165,-0.0224,-0.243,-0.362,-0.104,-0.715,0.0143,-0.146,-0.0963
CCACGTG,0.153,0.068,-0.765,-0.584,0.124,-0.867,0.237,0.116,-0.107
GTGCATG,-0.0167,-0.0477,-0.0483,0.434,-0.103,-0.0344,0.0829,-0.0667,-0.0287
CGTAAGA,0.0849,0.0949,-0.0147,-0.0668,0.101,-0.813,0.0727,0.0101,0.133
